Experimental data as given in PubChem BioAssay AID1468 (National Center for Advancing Translational Sciences (NCATS), 2008).
Hit rate of the full screen: of about 280,000 compounds, about 1,100 (0.39%) were called active. The shares of active, inactive and inconclusive entries below differ from those in the screen. Calls come from the whole dose curve; as a rule, active = well fitted inhibition curve with a large enough effect; inconclusive = small, poorly fitted or top-dose-only effect, or effect the other way; inactive = flat fitted curve, though single readings scatter. No potency is given beside an inconclusive call; the fits are too rough.

molecular target: Microtubule-associated protein tau (Homo sapiens) (UniProt P10636); test: qHTS for Inhibitors of Tau Fibril Formation, Fluorescence Polarization; conditions: K18 P301L tau heparin fibrillization, Alexa594 FP, 6 h; series mostly up to 57.7 µM; note: nearly all actives have a fitted effect of over 55% in size
In short: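 Recombinant K18 P301L […], labeled with Alexa 594 at 0.24 uM over 15 uM unlabeled; heparin inducer 20 uM final; 37 C, 6 hr; FP endpoint.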
Potency is the fitted concentration of half-maximal effect; tags give direction and shape of the fitted curve.

UniProt P10636, sequence (P10636 whole entry, looked up): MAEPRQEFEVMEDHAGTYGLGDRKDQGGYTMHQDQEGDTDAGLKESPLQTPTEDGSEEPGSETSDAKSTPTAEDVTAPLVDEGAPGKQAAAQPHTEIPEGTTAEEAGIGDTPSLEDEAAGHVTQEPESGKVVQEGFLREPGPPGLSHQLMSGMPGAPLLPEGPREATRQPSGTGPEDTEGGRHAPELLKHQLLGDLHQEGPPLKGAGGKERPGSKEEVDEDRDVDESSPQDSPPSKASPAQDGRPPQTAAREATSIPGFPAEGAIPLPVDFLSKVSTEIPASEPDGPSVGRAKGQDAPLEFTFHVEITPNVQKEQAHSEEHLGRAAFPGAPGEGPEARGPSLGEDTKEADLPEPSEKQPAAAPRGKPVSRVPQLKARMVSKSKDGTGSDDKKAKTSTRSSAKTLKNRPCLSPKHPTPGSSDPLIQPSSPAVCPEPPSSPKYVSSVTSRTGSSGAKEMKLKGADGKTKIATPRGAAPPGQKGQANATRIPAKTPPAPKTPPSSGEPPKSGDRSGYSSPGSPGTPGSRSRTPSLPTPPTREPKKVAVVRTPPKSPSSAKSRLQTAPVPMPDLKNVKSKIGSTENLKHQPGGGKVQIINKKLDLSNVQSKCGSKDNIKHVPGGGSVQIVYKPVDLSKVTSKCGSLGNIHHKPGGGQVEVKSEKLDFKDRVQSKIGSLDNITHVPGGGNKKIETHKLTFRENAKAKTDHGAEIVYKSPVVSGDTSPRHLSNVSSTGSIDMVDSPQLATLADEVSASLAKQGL

**Q.** With `CC1CCCN(CCCNC(=O)c2ccc3c(c2)N(Cc2ccccc2F)C(=O)c2ccccc2S3(=O)=O)C1` (configuration not stated) as the molecule, how does the Potency read?
**A.** Its Potency is “inactive”.

**Q.** For `Nc1n[nH]c(N)c1N=Nc1ccc(F)cc1`, which Potency is on record?
**A.** The Potency was “inactive”.

**Q.** Which Potency does the source give for `Cc1nn(-c2ccccc2)c(OC(=O)C(C)C)c1Sc1ccc(Cl)cc1` here?
**A.** Its Potency is inconclusive [inhibitor, full curve, poor fit].

**Q.** `O=C(NN1CCOCC1)NC12CC3CC(CC(C3)C1)C2` was tested. Which Potency did it give?
**A.** The Potency was “inactive”.

**Q.** `COc1ccc(C(=O)C2C3C4COC(O4)C(=O)C3C3C=Cc4ccccc4N32)c(OC)c1` (configuration not stated) was tested. Which Potency did it give?
**A.** The Potency was active: 11.2 µM.

**Q.** `COc1ccc(N2CCN(C(=O)c3ccc(C)cc3)CC2)c([N+](=O)[O-])c1` was tested. Which Potency did it give?
**A.** Its Potency is “inactive”.

**Q.** With `CCn1c(C)c(C2N3CC4(C)CN2CC(C)(C3)C4=O)c2ccccc21` (configuration not stated) as the molecule, how does the Potency read?
**A.** Its Potency is “inactive”.

**Q.** `CCSC1=NC2(CCCCC2)Nc2sc3c(c21)CCCC3` was tested. Which Potency did it give?
**A.** The Potency was inconclusive [inhibitor, partial curve].

**Q.** How did the Potency turn out when `CCCCCCC1CC(CC(=O)Nc2ccc([N+](=O)[O-])cc2)C(=O)O1` (configuration not stated) was run?
**A.** The Potency was “inactive”.

**Q.** With `O=C(Nc1ccc2oc(-c3ccccc3)nc2c1)c1cccs1` as the molecule, how does the Potency read?
**A.** The Potency was inconclusive [inhibitor, partial curve].

**Q.** How did the Potency turn out when `Cc1nc(C)c(-c2ccc(SCC(=O)Nc3ccc(Br)cc3)nn2)s1` was run?
**A.** The Potency was inconclusive [inhibitor, single point].

**Q.** Which Potency does the source give for `O=C1/C(=C/C=C/c2ccco2)SC(=S)N1NS(=O)(=O)c1ccccc1` here?
**A.** Its Potency is active: 15.8 µM.

**Q.** Which Potency does the source give for `CCOCCCNC(=O)c1c(N)n(-c2ccc3c(c2)OCO3)c2nc3ccccc3nc12` here?
**A.** Its Potency is “inactive”.

**Q.** Which Potency does the source give for `Brc1ccc(Nc2nc(-c3cccnc3)cs2)cc1` here?
**A.** The Potency was “inactive”.

**Q.** For `CC(C)Cn1c(-c2ccco2)nc2c(c(=O)c3ccccc3n2C)c1=O`, which Potency is on record?
**A.** Its Potency is “inactive”.

**Q.** With `Cc1ccc(-c2noc(C(C)NS(=O)(=O)c3ccc(C)cc3)n2)cc1` (configuration not stated) as the molecule, how does the Potency read?
**A.** The Potency was “inactive”.

**Q.** For `O=C(NCc1ccco1)c1ccc2c(c1)C(=O)c1ccccc1-2`, which Potency is on record?
**A.** Its Potency is inconclusive [inhibitor, partial curve].

**Q.** `O=C(O)Cc1ccc(N=Nc2c(O)c(C(=O)O)cc3ccccc23)cc1` was tested. Which Potency did it give?
**A.** The Potency was inconclusive [inhibitor, single point].

**Q.** `Cc1onc(-c2ccccc2Cl)c1C(=O)Nc1cccc2cccnc12` was tested. Which Potency did it give?
**A.** The Potency was inconclusive [inhibitor, single point].

**Q.** How did the Potency turn out when `Cc1cc(C(=O)NCc2ccc(F)cc2)n(-c2ccccc2)n1` was run?
**A.** The Potency was inconclusive [inhibitor, single point].

**Q.** For `Cc1ccc(C)c(S(=O)(=O)N/N=C2/CCCc3ccccc32)c1`, which Potency is on record?
**A.** Its Potency is “inactive”.

**Q.** For `Cc1cccc(N2CCN(c3ccc(NC(=O)/C=C(/C(=O)O)c4ccccc4)cc3)CC2)c1`, which Potency is on record?
**A.** The Potency was inconclusive [inhibitor, partial curve, poor fit].
